In all, about 150,000 compounds went through this assay and about 540 (0.36%) showed an effect of 50% or more. The list shows a part of the results.

The record followed here is ChEMBL document CHEMBL4888484, “Replenishing the malaria drug discovery pipeline: Screening and hit evaluation of the MMV Hit Generation Library 1 (HGL1) against asexual blood stage Plasmodium falciparum ,using a nano luciferase reporter read-out” (2022).

The subject of this assay is Plasmodium falciparum. Nature of the assay: Primary screen in NF54 nanoGlo assay, in single point, at 2uM, 72h; a lower Z score goes with more inhibition. In kind it is functional, Erythrocyte. The settings on record: timepoint 72 hour.
For orientation: % Inhibition means the change of the read-out against control, counted positive when it falls. Regarding `CN1CCN(C(=O)c2ccc(CO)cc2)C[C@@]12CCC(=O)N(CC1CC1)CC2`, the “% Inhibition” value is listed as -8% and the Z score worked out at 0.8.

Regarding `Cc1ccc(C(=O)N2C[C@H](C(=O)O)[C@@H](c3ccc4c(c3)OCO4)C2)cc1F`, the “% Inhibition” value is on record as -10% and the Z score is on record as 1.32.

In the case of `CC1(C)Cc2nc3[nH]nc(N)c3cc2CO1`, the “% Inhibition” value was -8% and the Z score worked out at 1.26.

As for `Cc1cnn([C@H]2CCCN(S(=O)(=O)c3c(C)cccc3Cl)C2)c1`, the “% Inhibition” value is given as -7% and the Z score was found to be 1.26.

As for `Cc1c(CN2CCC3(CC2)c2ccccc2C[C@@H]3O)cc(C#N)n1C`, the “% Inhibition” value is recorded as -17% and the Z score is listed as 2.31.

`CC(O)C1CCCCN1S(=O)(=O)c1ccc(Cl)c2ncccc12` (centres undefined): the “% Inhibition” value is recorded as 4% and the Z score is recorded as -0.56.

`N#Cc1nccnc1N[C@H]1CCCN(CC(F)(F)F)C1`: the “% Inhibition” value was -11% and the Z score was 1.83.

With `CCOc1cccc(-n2cc(-c3ccccc3)nc2NC(=O)CN(Cc2ccccc2)C(=O)c2ccc(Cl)cc2)c1`, the “% Inhibition” value was -5% and the Z score is on record as 0.59.

Regarding `CC1c2[nH]c3ccccc3c2C(c2ccccc2Cl)CN1C(=O)CCn1cncn1` (centres undefined), the “% Inhibition” value is given as -3% and the Z score worked out at 0.44.

As for `COc1ccc(-n2ccc(=O)c3c2CCCC3=O)cc1`, the “% Inhibition” value worked out at 7% and the Z score is -0.83.

For `CC(C)[C@H]1CN(CCC(=O)NC2CC2)C[C@@H]1Nc1ccc(C#N)cn1`, the “% Inhibition” value is recorded as -24% and the Z score was determined as 2.1.

For `CCc1ncc(CNC(=O)c2ccc(C)c(CO)c2)o1`, the “% Inhibition” value is -4% and the Z score is listed as 0.6.

In the case of `Cn1cccc1C(=O)N1CCC(F)(C(=O)NCC2CC2)CC1`, the “% Inhibition” value is recorded as -7% and the Z score is 0.89.

Consider `COc1ccc([C@H](CO)N(C)C(=O)NC(C)C)cc1`, for which the “% Inhibition” value is recorded as -10% and the Z score worked out at 1.62.

With `CC(=O)Nc1ccc2nc(CN(C)CC3(N4CCOCC4)CCCCC3)ccc2c1`, the “% Inhibition” value was -9% and the Z score amounted to 1.71.

As for `Cc1cc(C(=O)N2CC3(C[C@@H](c4nc(-c5ccccc5)no4)N(C)C3)C2)n(C)n1`, the “% Inhibition” value is recorded as -19% and the Z score is 2.26.

`COc1ccc(-n2nc(C)c3sc(N4CCN(C(=O)c5ccc(C)c(C)c5)CC4)nc32)cc1`: the “% Inhibition” value is recorded as -15% and the Z score worked out at 1.65.

With `Cc1ccncc1CC(=O)N(Cc1ccccc1)[C@H]1CC(C)(C)OC1(C)C`, the “% Inhibition” value was found to be 13% and the Z score is -1.48.

For the compound `O=C(NCCc1ccccc1)[C@@H]1CCN1S(=O)(=O)c1ccc2c(c1)OCCO2`, the “% Inhibition” value was -34% and the Z score is listed as 3.99.

As for `COC(=O)[C@@H]1CCCCN1Cc1cccc2nsnc12`, the “% Inhibition” value is on record as -14% and the Z score was 1.23.

Regarding `C[C@H](Oc1ccccc1-c1cc(C2CCC2)nc(N)c1C#N)C(=O)O`, the “% Inhibition” value is -28% and the Z score was 3.42.

Regarding `O=C([C@H]1CCCN(S(=O)(=O)c2cccc3nonc23)C1)N1CCc2ccccc2C1`, the “% Inhibition” value is reported as -3% and the Z score is 0.52.

Turning to `CCc1nn(C)cc1NCc1cnnn1C`, the “% Inhibition” value is on record as -8% and the Z score was determined as 1.08.

With `Cc1nc(CCNC(=O)C(C)(C)NC(=O)Nc2ccccc2)cs1`, the “% Inhibition” value is reported as -6% and the Z score stood at 1.

For the compound `Nc1nonc1C(=O)NCCc1ccccc1`, the “% Inhibition” value is -8% and the Z score is reported as 1.06.

For the compound `COCC1(CNC(=O)[C@H](C)c2cnn(C)c2)CCCCC1`, the “% Inhibition” value is given as 0% and the Z score is recorded as -0.01.

As for `O=C1CN(c2ccc(NC(=O)[C@@H]3CCCc4c(O)cccc43)cn2)CCN1`, the “% Inhibition” value is on record as 10% and the Z score is -1.02.

As for `COCCN(CCN(C(C)=O)c1ccc(F)cc1)C(C)=O`, the “% Inhibition” value is reported as -12% and the Z score was 1.14.

On to `O=S(=O)(c1c[nH]c2cccc(F)c12)N1CC(C2CC2)C1C1CC1` (centres undefined), for which the “% Inhibition” value stood at 2% and the Z score is on record as -0.46.

For the compound `CCc1nn(C)c(NC(=O)[C@@H]2CCCC[C@@H]2C(=O)N2CCCC2)c1C`, the “% Inhibition” value was -4% and the Z score was 0.81.

Turning to `c1coc(-c2nc(CNC[C@H]3CN(C4CC4)CCO3)cs2)c1`, the “% Inhibition” value is -5% and the Z score was found to be 0.66.

Turning to `Cc1cnc(C[C@H]2CCN(C(=O)NC3CCCCC3)C2)n1C1CC1`, the “% Inhibition” value was -14% and the Z score was found to be 1.76.

With `O=C(Nc1ccc(C2OC(=O)N(Cc3ccccc3)C2C(=O)NCC2CCCO2)cc1)c1ccco1` (centres undefined), the “% Inhibition” value is given as -11% and the Z score is recorded as 1.57.

Regarding `CC1CC(C)CN(c2ccc(S(=O)(=O)N3CCOCC3)cc2)C1` (centres undefined), the “% Inhibition” value is -14% and the Z score came to 1.77.

For `Cc1ccc(NC(=O)NC2CCOCC2)c(C)c1`, the “% Inhibition” value was found to be 0% and the Z score is on record as -0.08.

`O=C(CCc1ccco1)Nc1cn[nH]c1`: the “% Inhibition” value is on record as -11% and the Z score is recorded as 1.05.

Consider `O=C(NCC1(Cn2cccn2)CC1)c1c(O)cccc1O`, for which the “% Inhibition” value is listed as -15% and the Z score was 2.76.

Regarding `CC(C)c1ccc(NC(=O)CCN2CCC(O)(c3ccccn3)CC2)cc1`, the “% Inhibition” value is -3% and the Z score is reported as 0.55.

With `Cc1nccn1[C@H]1[C@@H]2OC[C@@H](O2)[C@@H](NCc2ccncc2F)[C@@H]1O`, the “% Inhibition” value is recorded as 34% and the Z score is -3.88.

As for `Cc1csc(CNC2CCN(c3ccccc3Cl)CC2)n1`, the “% Inhibition” value is on record as 4% and the Z score is reported as -0.66.

On to `CCCCNC(=O)[C@@H]1CCCC[C@@H]1C(=O)NCc1cc(O)nc(C)n1`, for which the “% Inhibition” value is on record as 8% and the Z score is recorded as -0.99.

For the compound `C/C(=C\c1ccccc1)CN1CC[C@@]2(CCCNC2)C1`, the “% Inhibition” value is recorded as -5% and the Z score is reported as 0.88.
